The list shows a part of the results. Viral Rep nickase domains cut single-stranded DNA in vitro (3 µM enzyme, 1 h, 37 °C); shown is the middle of each 90-letter strand. Values are log2 of uncut reads against the no-enzyme pool; more negative means more cut, near 0 not cut, and no call is made. Reads are scaled to the total; where an enzyme cuts many sequences, the uncut ones exceed 0.
Key:
Assay in all cases: uncleaved DNA left, log2 of reads against the no-enzyme library (log2 ratio); higher = less cleavage (more negative = more Rep cleavage of the k-mer); sequences stand for … in CTCGTCCG…ACCGGAGA
[1] = system: T1, Rep nickase domain of Muscovy duck circovirus
T1 sequence (residues 1-111, tag not shown): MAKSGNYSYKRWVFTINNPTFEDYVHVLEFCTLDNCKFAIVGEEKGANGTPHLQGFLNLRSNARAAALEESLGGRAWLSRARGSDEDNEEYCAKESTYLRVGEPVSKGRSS
Procedure: (§1)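 A pool of 90-nt single-stranded DNAs with seven random bases just before the constant AC of the nick site (name = the seven bases) was cut by 3 µM recombinant His6-SUMO-tagged Rep nickase domain (300 nM DNA, 50 mM HEPES pH 8.0, 50 mM NaCl, 1 mM MnCl2, 1 h, 37 °C, three replicates). Uncut DNA was amplified and sequenced.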

[2] = system: T2, Rep nickase domain of banana bunchy top virus
T2 sequence (residues 1-94, tag not shown): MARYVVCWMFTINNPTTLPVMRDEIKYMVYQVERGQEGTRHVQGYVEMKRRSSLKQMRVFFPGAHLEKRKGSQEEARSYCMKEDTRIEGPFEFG
Procedure: as §1

[3] = system: T3, Rep nickase domain of cabbage leaf curl virus
T3 sequence (residues 1-116, tag not shown): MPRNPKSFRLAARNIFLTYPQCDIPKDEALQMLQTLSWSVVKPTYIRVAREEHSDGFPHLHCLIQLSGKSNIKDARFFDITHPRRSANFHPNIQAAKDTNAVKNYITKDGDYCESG
Procedure: as §1

[4] = system: T4, Rep nickase domain of chickpea chlorotic dwarf virus
T4 sequence (residues 1-124, tag not shown): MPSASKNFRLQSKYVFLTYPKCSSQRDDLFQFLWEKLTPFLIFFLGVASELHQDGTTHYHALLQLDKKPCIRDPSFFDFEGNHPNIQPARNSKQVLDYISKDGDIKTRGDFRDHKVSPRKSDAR
Procedure: as §1

[5] = system: T5, Rep nickase domain of faba bean necrotic yellows virus
T5 sequence (residues 1-98, tag not shown): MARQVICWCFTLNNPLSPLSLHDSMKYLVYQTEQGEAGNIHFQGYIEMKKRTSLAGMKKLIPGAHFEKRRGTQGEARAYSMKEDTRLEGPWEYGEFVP
Procedure: as §1

[6] = system: T6, Rep nickase domain of maize striate mosaic virus
T6 sequence (residues 1-117, tag not shown): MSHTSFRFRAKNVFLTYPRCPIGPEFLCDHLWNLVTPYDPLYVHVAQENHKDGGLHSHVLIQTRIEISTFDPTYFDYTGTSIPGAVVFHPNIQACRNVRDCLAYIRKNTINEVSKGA
Procedure: as §1

[7] = system: T7, Rep nickase domain of porcine circovirus 2
T7 sequence (residues 2-116, tag not shown): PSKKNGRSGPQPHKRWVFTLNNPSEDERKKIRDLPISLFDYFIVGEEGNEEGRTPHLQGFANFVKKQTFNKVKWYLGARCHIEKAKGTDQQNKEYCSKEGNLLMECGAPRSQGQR
Procedure: as §1

[8] = system: T8, Rep nickase domain of tomato golden mosaic virus
T8 sequence (residues 1-124, tag not shown): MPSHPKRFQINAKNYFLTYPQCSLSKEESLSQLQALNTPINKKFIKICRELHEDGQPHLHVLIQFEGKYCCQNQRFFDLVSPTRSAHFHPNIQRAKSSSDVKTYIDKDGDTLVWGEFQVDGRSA
Procedure: as §1

[9] = system: T9, Rep nickase domain of tomato yellow leaf curl virus
T9 sequence (residues 1-136, tag not shown): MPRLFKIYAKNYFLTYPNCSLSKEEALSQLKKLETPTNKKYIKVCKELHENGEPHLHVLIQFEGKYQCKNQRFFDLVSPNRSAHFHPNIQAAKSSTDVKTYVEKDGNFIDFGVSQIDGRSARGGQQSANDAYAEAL
Procedure: as §1

[10] = system: T10, Rep nickase domain of wheat dwarf virus
T10 sequence (residues 1-137, tag not shown): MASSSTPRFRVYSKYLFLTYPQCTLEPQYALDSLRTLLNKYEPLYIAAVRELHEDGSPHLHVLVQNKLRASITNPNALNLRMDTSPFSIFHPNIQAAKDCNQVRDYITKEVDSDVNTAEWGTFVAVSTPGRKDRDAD
Procedure: as §1

Sequence | uncleaved DNA left (log2) [1] | uncleaved DNA left (log2) [2] | uncleaved DNA left (log2) [3] | uncleaved DNA left (log2) [4] | uncleaved DNA left (log2) [5] | uncleaved DNA left (log2) [6] | uncleaved DNA left (log2) [7] | uncleaved DNA left (log2) [8] | uncleaved DNA left (log2) [9] | uncleaved DNA left (log2) [10]
TGGACTG | 0.0279 | -0.0465 | 0.0433 | 0.739 | -0.0992 | 1.73 | -0.02 | -0.066 | -0.0534 | 0.00171
TAGCGCT | -0.0565 | -0.105 | -0.353 | -1.31 | -0.133 | -0.446 | -2.69 | -0.0316 | -0.0676 | -0.172
TAGTCGC | 0.0355 | -0.0523 | -0.696 | -0.816 | 0.0429 | -1.06 | -2.38 | -0.0568 | 0.0228 | -0.036
GGGACTG | 0.0438 | 0.0371 | 0.73 | 1.74 | -0.106 | 2.23 | 0.179 | 0.135 | -0.149 | 0.108
AATCTGG | 0.18 | 0.0992 | 0.287 | 0.452 | 0.257 | -0.159 | 0.298 | 0.238 | 0.153 | 0.218
TGGGTAC | 0.102 | 0.156 | 0.761 | 1.66 | 0.0554 | 1.9 | 0.335 | 0.0655 | 0.105 | 0.124
ATCTGTC | 0.0638 | -0.034 | -0.0879 | 0.228 | -0.153 | 0.0736 | -0.0208 | -0.0154 | -0.0948 | -0.065
ACATCTG | -0.0035 | -0.0138 | -0.711 | -0.498 | -0.123 | -0.882 | 0.0504 | -0.0659 | 0.0312 | -0.0606
AATCGGG | -0.00698 | -0.0123 | -0.293 | -0.083 | 0.00434 | -0.837 | 0.123 | 0.067 | 0.06 | 0.00892
TACAAGC | 0.0717 | 0.0126 | -0.0346 | -0.258 | 0.0019 | -0.844 | 0.191 | 0.0295 | 0.00281 | 0.0822
CATCACC | -0.00518 | 0.0906 | -0.0503 | -0.629 | 0.0642 | -0.526 | -0.0635 | 0.00614 | -0.061 | 0.0216
TACCACG | -0.0786 | -0.118 | -0.889 | -1.15 | -0.123 | -1.09 | -0.902 | -0.209 | -0.177 | -0.168
ATAGACA | 0.0443 | 0.0913 | 0.206 | -0.914 | 0.212 | 0.0947 | 0.111 | 0.076 | 0.0108 | 0.13
CTACTAA | -0.0735 | 0.0292 | -0.321 | -1.69 | -0.0142 | -0.752 | -0.0456 | -0.133 | -0.0529 | -0.0303
CAAAAGA | -0.00199 | -0.00534 | -0.14 | -0.682 | 0.125 | -1.17 | 0.0984 | 0.0238 | -0.105 | -0.0657
ATCGGGC | 0.00943 | -0.0125 | 0.415 | 0.505 | -0.114 | 0.557 | 0.102 | -0.00674 | -0.167 | -0.0446
ACCTAAC | 0.0434 | 0.11 | -0.548 | -1.38 | 0.0394 | -0.877 | 0.0544 | 0.0614 | 0.0768 | 0.146
GGTTAGC | 0.0673 | 0.127 | 0.358 | 0.859 | 0.05 | 0.934 | 0.17 | 0.0526 | 0.0642 | 0.0167
TCCGTAT | -0.151 | -0.287 | -0.0156 | -0.26 | -0.162 | 0.253 | -0.178 | -0.158 | -0.0294 | -0.114
CCAATAT | -0.077 | -0.0121 | -0.00317 | -0.949 | -0.24 | -0.764 | -0.0731 | -0.0748 | -0.0267 | -0.0394
GGGTCGC | -0.0328 | -0.0298 | 0.783 | 1.87 | -0.0789 | 2.12 | 0.125 | 0.0134 | -0.0355 | 0.148
TCCGATG | 0.197 | -0.00435 | 0.117 | 0.538 | 0.0044 | 0.343 | 0.266 | 0.0432 | 0.0593 | 0.154
GAGGGGT | 0.0523 | 0.0234 | 0.431 | 1.21 | -0.0208 | 1.8 | -0.0314 | 0.142 | -0.0419 | 0.0169
TATGCTT | -0.0979 | -1.62 | -2.24 | -2.38 | 0.0371 | -0.659 | -1.44 | -0.164 | -0.00907 | -0.172
CTACATA | -0.0197 | 0.119 | -0.238 | -1.94 | 0.00514 | -0.49 | -0.0843 | -0.107 | -0.0523 | -0.0341
ATCTCTC | 0.0575 | -0.0719 | -0.116 | -0.145 | -0.0671 | -0.198 | -0.0248 | -0.166 | 0.0155 | -0.015
AGCGTAC | -0.0824 | -0.0546 | -0.0419 | 0.349 | -0.0659 | 0.819 | -0.0522 | -0.0379 | -0.0237 | -0.0184
TCCACAT | 0.088 | 0.122 | 0.404 | 0.0871 | 0.107 | 0.484 | 0.124 | -0.0647 | 0.183 | 0.232
CTCTTCC | -0.0632 | 0.0119 | 0.0851 | -0.356 | 0.0765 | -0.49 | 0.0118 | -0.0803 | -0.211 | -0.0383
CGAACTT | 0.0277 | 0.0302 | -0.0216 | 0.0377 | -0.0258 | 1.28 | -0.024 | -0.0936 | -0.114 | 0.161

— the supplement of paper PMC7826260
